# Reference: the supplement of paper PMC3334620
# Over roughly 33,000 sequences, “E-score (-0.5 to 0.5)” has its median near -0.01; the highest 2% begin near 0.26. Some of the results follow.
# Biological target: Ste12 (UniProt P13574)
# Experiment: PBM E-score (8-mer binding enrichment) (E-score (-0.5 to 0.5)); higher = stronger / more preferred TF binding; most listed sequences are background and not binding sites
# Details: protein concentration: 200 nM; construct: GST-DNA-binding domain
# Description: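 Universal 'all 10-mer' protein binding microarrays (Agilent AMADID 015681) probed with GST-tagged S. cerevisiae TFs (full-length or DBD) made by in vitro transcription/translation (PURExpress), about 100-200 nM. Bound TF was detected with fluorescent anti-GST. Each ungapped 8-mer (which stands for itself and its reverse complement) is scored by the PBM enrichment score (E-score), a modified Wilcoxon-Mann-Whitney statistic from -0.5 to +0.5, computed with the Universal PBM Analysis Suite. Scale: above 0.35 generally sequence-specific binding.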
row,Sequence,PBM E-score
1,CCCTCTCG,-0.0381
2,CTCTGCGC,-0.0429
3,AGTATTGC,-0.0341
4,GGTACAAC,0.102
5,CTAGCCTA,-0.0508
6,CCTGACGA,0.087
7,CGCCCTTC,-0.119
8,AGGACGGG,-0.116
9,TAGCGTAA,-0.108
10,CGCCTCAC,-0.00067
11,GCTAAAAC,0.226
12,CAGAGTTC,-0.167
13,CCCGCTAG,-0.163
14,AGTGCCGA,-0.0685
15,GAGATAGC,-0.126
16,GAACTTCA,-0.0769
17,GGTGTCAA,-0.00826
18,AACGCTGT,-0.012
19,AGCCGCAC,-0.17
20,AACGTCAG,-0.155
21,CATCGTTC,-0.0708
22,CAAATGCG,0.162

row,Sequence,PBM E-score
1,ATTGAACC,0.0955
2,AATATCCC,0.095
3,ATTAGGGC,-0.232
4,GAAGGAAA,0.0147
5,GCAGTTAA,-0.0852
6,TCCTACCA,-0.131
7,ATTCCTTG,-0.136
8,ACATCTAC,0.0372
9,GGGTTCGA,-0.226
10,TGAGGGCA,-0.153
11,GGGTCAAC,0.0833
12,CCGGATTC,-0.0592
13,CTCCTACA,-0.0765
14,AACCTGGA,0.0279
15,CCCCTCAG,-0.0536
16,CATACAAC,-0.0361
17,TGCTACAA,0.0358
18,AACCACTT,0.143
19,AGCTTCCC,-0.122
20,CAATTTAG,0.118
21,CGGGTCGC,-0.0355
22,TAGGTAAA,0.00121

row,Sequence,PBM E-score
1,TGTAGAAA,0.136
2,TCTCATAA,0.0315
3,AAGTCTAA,-0.012
4,ATTCGCGG,0.0576
5,ACATCTCC,0.0333
6,ATGCTCAC,-0.0518
7,CCTTCGCC,-0.0682
8,CTAATTAA,0.117
9,GGACGGCC,-0.177
10,AACAATAT,0.236
11,AGGGGAGC,-0.123
12,CACCGGAG,0.0178
13,ACAAACCC,0.0905
14,CGGTATAG,0.0412
15,CATCCTTC,0.0076
16,TACGCCCA,-0.0526
17,AAACAATT,0.112
18,AAACGGTG,0.133
19,CTTAATGC,-0.049
20,GGTAACAA,0.264
21,CATACTAC,0.0392
22,AGAAACGG,0.0926

row,Sequence,PBM E-score
1,GCTGATTA,0.0336
2,GACGCGTA,-0.0025
3,AGTACACG,-0.0744
4,CTGTTCCC,-0.118
5,CGGGGATC,-0.00199
6,GAAATCAC,0.0714
7,AAAATTCT,0.114
8,AGTCGCCG,-0.0311
9,AAGTTGTC,0.107
10,CAGCTCGA,-0.00483
11,GGATGCTA,-0.109
12,ATGTCCCA,-0.176
13,ATTCCAAG,-0.0778
14,CCGCTACC,0.028
15,AGACACTA,0.0233
16,ACCCAAAT,0.172
17,GATAGGGA,-0.197
18,AATCATAA,0.0803
19,TAAGTGCA,-0.104
20,ATGTGGTC,-0.0153
